58 compounds from PubChem BioAssay AID360 (National Center for Advancing Translational Sciences (NCATS), 2006) can be followed below.

Out of some 48,000 compounds screened, about 550 (1.1%) were called active. About 4% were inconclusive and are not listed. Cut-off read from the data, not from the text of the source: active = potency below about 15 µM; inconclusive = mostly about 16 µM to 33 µM; inactive = weaker than that. Some of the results follow.
Potency is the fitted concentration of half-maximal effect.

In this test the target is Lysosomal acid glucosylceramidase (Homo sapiens) (UniProt P04062). In words: Glucocerebrosidase.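 Note: the screen sought inhibitors.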 As to conditions: purified enzyme, resorufin glucoside fluorescence (screen aimed at inhibitors), 20 min. The essentials: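 Normal human glucocerebrosidase (0.2 nM final) was assayed with resorufin β-D-glucopyranoside (30 uM final) in 50mM citric acid/KH2PO4, 10mM sodium taurocholate, 0.01% tween-20, pH 5.9. Compounds were titrated; fluorescence (Ex 548, Em 600) read after 20 min at RT.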
UniProt P04062, sequence (P04062 whole entry, looked up): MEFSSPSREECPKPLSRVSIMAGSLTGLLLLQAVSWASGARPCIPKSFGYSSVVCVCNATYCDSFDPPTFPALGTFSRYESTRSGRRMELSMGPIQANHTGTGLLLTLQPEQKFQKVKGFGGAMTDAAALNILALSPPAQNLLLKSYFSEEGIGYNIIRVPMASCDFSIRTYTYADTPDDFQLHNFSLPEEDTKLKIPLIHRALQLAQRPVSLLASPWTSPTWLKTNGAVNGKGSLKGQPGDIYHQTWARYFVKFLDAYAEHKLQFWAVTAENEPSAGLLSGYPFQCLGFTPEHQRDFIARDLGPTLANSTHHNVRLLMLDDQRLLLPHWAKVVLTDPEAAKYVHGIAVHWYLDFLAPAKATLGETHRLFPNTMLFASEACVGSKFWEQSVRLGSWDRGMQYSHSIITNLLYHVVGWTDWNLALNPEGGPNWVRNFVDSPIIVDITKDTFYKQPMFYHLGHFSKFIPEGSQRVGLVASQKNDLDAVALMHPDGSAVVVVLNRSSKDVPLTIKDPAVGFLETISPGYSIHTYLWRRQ
As to `CN1C(=O)C(Cc2ccsc2)C(=O)N(C)C1=O`, the Potency is inactive: > 76.9 µM. For `O=c1[nH]c(=O)n(CCc2ccc(F)cc2)c(O)c1C=NCCCn1ccnc1`, the Potency was inactive: > 76.9 µM. In the case of `CCOc1cc(C2NCc3ccccc3-n3cccc32)ccc1O` (stereo not drawn), the Potency is inactive: > 76.9 µM. In the case of `O=C(C1CCCO1)N1CCC2(CC1)OCCO2` (stereo not drawn), the Potency is inactive: > 76.9 µM. For the compound `Cc1nc2cc(F)ccc2n1C1CCN(Cc2nnnn2CCc2ccccc2)CC1`, the Potency is inactive: > 76.9 µM. On to `CC(=O)N(C1=NCCCS1)c1ccc(F)cc1`, for which the Potency is inactive: > 76.9 µM.

Take `Cc1nn(Cc2ccccc2)c(C)c1C(=O)OCC(=O)Nc1ccccc1SCC#N`: the Potency was inactive: > 76.9 µM. With `CCOC(=O)C1CCCCC12C(C#N)=C(N)Oc1n[nH]c(C)c12` (stereo not drawn), the Potency was inactive: > 76.9 µM.

Take `CCC(C)NC(=O)c1c(N)n(CCCOC)c2nc3ccccc3nc12` (stereo not drawn): the Potency is inactive: > 76.9 µM. Take `CCOC(=O)C1C(=O)NC2(C)CC1c1cc(OC)ccc1O2` (stereo not drawn): the Potency was inactive: > 76.9 µM. On to `CCOC(=O)C1CCN(C(C)C(=O)c2c(C)[nH]c3cc(C)ccc23)CC1` (stereo not drawn), for which the Potency was inactive: > 76.9 µM. For the compound `O=C1C2CCCN2C(c2cccc(Cl)c2)N1c1ccccn1` (stereo not drawn), the Potency was inactive: > 76.9 µM. In the case of `FC(F)(F)c1ccc2c(c1)NP(=S)(N1CCOCC1)c1nccn1-2` (stereo not drawn) it was inactive: > 76.9 µM; in that of `CC(=NCc1ccc(F)cc1)c1c(O)n(C)c(=O)n(C)c1=O`, inactive: > 76.9 µM.

`c1ccc2[nH]c(CCNC3CCCCC3)nc2c1`: the Potency is inactive: > 76.9 µM. For `COc1ccc(Cl)cc1NC1=NCC(C)S1` (stereo not drawn), the Potency was inactive: > 76.9 µM. `CC(=O)N1CCC2(CC1)CC(=O)c1cc(OCC(=O)N3CCN(C)CC3)ccc1O2`: the Potency was inactive: > 76.9 µM. Regarding `CCCCOC(=O)C1=C(N)OC2=C(C(=O)CCC2)[C@]12C(=O)Nc1ccccc12`, the Potency is inactive: > 76.9 µM.

Take `C[C@H]1CCCC(=O)CCCCCc2cc(O)cc(O)c2C(=O)O1`: the Potency was inactive: > 76.9 µM. Take `COc1ccc(-n2c(O)c(C(C)=NC3CC3)c(=O)[nH]c2=O)cc1`: the Potency was inactive: > 76.9 µM. On to `Cc1ccc2c(c1)C1CN(C)CCC1N2C(=O)Cn1cnc2c1c(=O)n(C)c(=O)n2C` (stereo not drawn), for which the Potency was inactive: > 76.9 µM. As for `c1ccc(CCn2nnnc2CN2CCC(n3nnc4ccccc43)CC2)cc1`, the Potency is inactive: > 76.9 µM. For `FC(F)(F)c1ccc2c(c1)nnn2C1CCN(Cc2nnnn2Cc2ccccc2)CC1`, the Potency was inactive: > 76.9 µM. `CN(C)c1ccc(N=Cc2c(O)n(CCC3=CCCCC3)c(=O)[nH]c2=O)cc1`: the Potency was inactive: > 76.9 µM. Take `CC(Cc1ccccc1)[n+]1cc(/N=C(\N)[O-])on1` (stereo not drawn): the Potency is inactive: > 76.9 µM.

As for `CN1CCC2(CC1)NC(=O)C1=C(CN(C)CC1)N2`, the Potency was inactive: > 76.9 µM.

Take `CCCCN1CCC(C#N)(Nc2ccccc2)CC1`: the Potency is inactive: > 76.9 µM. `Cc1ccc(C2C(S(C)(=O)=O)=C(O)C(=O)N2c2ccccc2)cc1` (stereo not drawn) (tested in a mixture with another compound): the Potency was inactive: > 76.9 µM. As to `Cn1c(O)c(C=NCCCN2CCCC2=O)c(=O)n(C)c1=O`, the Potency is inactive: > 76.9 µM.

With `Cc1ccc(P(=S)(c2ccc(C)o2)N2CCOCC2)o1`, the Potency is inactive: > 76.9 µM. `Cc1ccc2c(c1)CNc1ccccc1O2`: the Potency was inactive: > 76.9 µM. Regarding `O=C(CN1CCN(Cc2cccc(Cl)c2)C1=O)N1CCC2(CC1)OCCO2`, the Potency was inactive: > 76.9 µM. In the case of `CN(C)c1ccc2c(c1)N=C(c1ccco1)OP2(=S)N1CCOCC1` (stereo not drawn), the Potency was inactive: > 76.9 µM. As to `Cc1cc(OCC(=O)O)c2c3c(c(=O)oc2c1)CCCC3`, the Potency was inactive: > 76.9 µM. On to `OC1(c2ccc(F)cc2)CC2CCC(C1)N2Cc1nnnn1C1CCCCC1` (stereo not drawn), for which the Potency was inactive: > 76.9 µM. For `C=COCCn1c(C)c(C(=O)OCC)c2cc(O)ccc21` the value was inactive: > 76.9 µM; for `Cc1ccc2nc3c(cc2c1)CC1(C(=O)N(C)C(=O)N(C)C1=O)C1COCCN31` (stereo not drawn), inactive: > 76.9 µM; for `CCCCOC(=O)C1=C(N)OC2=C(C(=O)CC(C)(C)C2)[C@]12C(=O)N(C)c1ccccc12`, inactive: > 76.9 µM.

As for `CCCC(=O)C1C(=O)NC(=O)NC1=O`, the Potency is inactive: > 76.9 µM. For `Cc1ccc2c(c1)CC1(CN2C)C(=O)NC(=O)N(c2cccc(C)c2C)C1=O` (stereo not drawn) the value was inactive: > 76.9 µM; for `O=C1C2CCCN2C(c2ccncc2)N1c1ccc(Cl)c(Cl)c1` (stereo not drawn), inactive: > 76.9 µM; for `O=C(O)Cn1cc(C(=O)c2ccccc2)c2ccccc21`, inactive: > 76.9 µM.

Consider `CC12CN3CC(c4ccccc4)(CN(C1)C31CCCCC1)C2=O`, for which the Potency is inactive: > 76.9 µM. Turning to `Fc1ccc(N2CCN(Cc3ccc4c(c3)OCO4)CC2)cc1`, the Potency was inactive: > 76.9 µM. On to `CCCCn1c(O)c(C(CC)=Nc2ccc(C(=O)O)cc2)c(=O)[nH]c1=O`, for which the Potency was inactive: > 76.9 µM.

Consider `COC(=O)C(O)(c1c(C)[nH]n(-c2ccccc2)c1=O)C(F)(F)F` (stereo not drawn), for which the Potency is inactive: > 76.9 µM.

For the compound `[O-][n+]1onc2c1CCC1N(O)CCC21O` (stereo not drawn), the Potency is inactive: > 76.9 µM.

`CC12CN3CCN(CC(C3)C1O)C2` (stereo not drawn): the Potency is inactive: > 76.9 µM.

`CNCCc1c(C)n[nH]c1C`: the Potency was inactive: > 76.9 µM. Turning to `CNP1(NC)=Nc2nn(-c3ccccc3)c(N)c2C(c2ccccc2)=N1`, the Potency is inactive: > 76.9 µM. Turning to `O=P(OCC(F)(F)C(F)F)(N1CCOCC1)N1CCOCC1`, the Potency is inactive: > 76.9 µM. Consider `CCOCCCN=Cc1c(O)n(Cc2ccccc2)c(=O)[nH]c1=O`, for which the Potency was inactive: > 76.9 µM. As for `c1ccc2oc(N3CCNCC3)nc2c1`, the Potency is inactive: > 76.9 µM. Consider `CCCCn1c(N)c(C(=O)OCC2CCCO2)c2nc3ccccc3nc21` (stereo not drawn), for which the Potency was inactive: > 76.9 µM.

As for `Cn1c(=O)cc(SCC(=O)N2CCC3(CC2)OCCO3)c2ccccc21`, the Potency is inactive: > 76.9 µM.

For the compound `Cc1ccc(C)c(CN2CCC(n3nnc4cc(F)ccc43)CC2)c1`, the Potency is inactive: > 76.9 µM.

`Cc1cc(C)n(CCOC(=O)C2C(C=C(Cl)Cl)C2(C)C)n1` (stereo not drawn): the Potency was inactive: > 76.9 µM.

Take `COc1cc2nc(CN3CC=C(c4ccccc4)CC3)[nH]c(=O)c2cc1OC`: the Potency is inactive: > 76.9 µM.
